# According to PubChem BioAssay AID493208 (National Center for Advancing Translational Sciences (NCATS), 2011):
# Among all 44,000 compounds or so, about 340 (0.77%) were called active. About 5% were inconclusive and are not listed. The call rests on the fitted dose curve; in most records, active means well fitted inhibition curve with a large enough effect; inconclusive means small, poorly fitted or top-dose-only effect; inactive means flat fitted curve, though single readings scatter. Some of the results follow.
# Assay: Acumen qHTS Assay for Inhibitors of the mTORC1 Signaling Pathway in MEF (Tsc2-/-, p53-/-) Cells: Sytravon;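 further: plate controls were DMSO for no effect and rapamycin for full effect; nearly all actives have a fitted effect of over 50% in size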
# Details: phospho-rpS6 immunofluorescence/PI, 24 h; series mostly up to 38.3 µM; activity change, negative = inhibition: at the top concentration
# Procedure, shortened: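 Read-out: phospho-S6 Alexa-488 intensity over PI intensity per well, scored as % active cells using thresholds from rapamycin (7.5 nM) and DMSO controls. Tsc2-/-, p53-/- MEFs exposed to compound for 24 h; PI cell count recorded as viability.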
row,SMILES,"activity change, negative = inhibition"
1,CCc1ccccc1NC(=O)[C@H](Cc1ccccc1)N1Cc2ccccc2C1=O,inactive: 0.608%
2,COc1ccc(CCNC(=O)CSc2cn(CCNC(=O)c3ccc(OC)c(OC)c3)c3ccccc23)cc1OC,inactive: -2.49%
3,Cc1cccc(C)c1NC(=O)CSc1nccn1C,inactive: -1.04%
4,CCOc1ccc(CNC(=O)c2cccc(Nc3nc4ccccc4n4nnnc34)c2)cc1OC,inactive: -23.8%
5,Cc1ccc(C)c(CN2C(=O)c3ccccc3S(=O)(=O)c3ccc(C(=O)N4CCN(Cc5ccccc5)CC4)cc32)c1,inactive: -15.9%
6,CC(C)Cn1c(SCc2cccc(F)c2)nc2ccsc2c1=O,inactive: 0.243%
7,CCOc1ccc(NC(=O)c2oc3ccccc3c2NC(=O)C(C)Oc2ccccc2)cc1 (stereo not given),inactive: -10.4%
8,CC(=O)c1cc2c(cc1N/C(=N/S(=O)(=O)c1ccc(C)cc1)c1ccc(Cl)cc1)OCO2,inactive: -3.14%
9,O=C(CCn1c(=O)c2cccn2c2cccnc21)NCc1cccc(Br)c1,inactive: 2.91%
10,Cc1ccc2c(=O)cc(C(=O)Nc3ccc(S(=O)(=O)N4CCCC(C)C4)cc3)oc2c1C (stereo not given),inactive: 1.7%
11,COc1ccc(-c2cn3c(n2)sc2cc(C(=O)NCc4ccccc4)ccc23)cc1,inactive: -3.04%
12,Cc1ccc(CNc2c(C)c(C)nc3nncn23)cc1,inactive: -5.85%
13,COc1ccc(OC)c(C2CC(=O)Nc3ccc4ccccc4c32)c1 (stereo not given),inactive: -25.9%
14,COc1ccc(Cc2nc3ccc(C(=O)NCCc4ccc(Cl)cc4)cc3o2)cc1,inactive: -0.876%
15,CCN(C(=O)CCS(=O)(=O)c1cc(Br)cc2c1N(C(=O)C1CC1)CC2)c1cccc(C)c1,inactive: -7.77%
16,Cc1ccc(C)c(C(=O)N2CCC(c3nc4c(nnn4Cc4ccccc4)c(=O)[nH]3)CC2)c1,inactive: -11.7%
17,COc1ccccc1C1=Nn2c(nc3sc(C(=O)Nc4ccccc4Cl)c(C)c3c2=O)SC1,inactive: -1.39%
18,CCOCCCn1c(SCC(=O)Nc2ccccc2OC)nc2c(oc3ccccc32)c1=O,inactive: -2.73%
19,COc1ccc(C2c3cc(OC)c(OC)cc3CC(=O)N2c2cccc(C#N)c2)cc1 (stereo not given),inactive: 4.72%
20,CCOc1ccccc1N1CC(c2nc3ccccc3n2CCCCOc2ccccc2)CC1=O (stereo not given),inactive: 1.25%
21,CC(NC(=O)c1c(O)nc2ccccn2c1=O)c1ccccc1 (stereo not given),inactive: -5.84%
22,CCOC(=O)c1ccc(NC(=O)C2=C(C)C(=O)OC23CCN(C(C)=O)CC3)cc1,inactive: 0.807%
23,CCOC(=O)c1cccc(NC(=O)c2cc(C)nc3c2c(C)nn3-c2ccc(C)cc2)c1,inactive: -16.6%
24,COc1cc(Nc2nc3ccc(Cl)cc3nc2-n2nc(C)cc2C)cc(OC)c1,inactive: -1%

row,SMILES,"activity change, negative = inhibition"
1,O=C(CN1C(=O)COc2ccc(S(=O)(=O)NC3CCCC3)cc21)NCc1ccccc1Cl,inactive: -1.07%
2,Cn1ncc2c(Nc3cccc(C#N)c3)ncnc21,inactive: -12.7%
3,CCc1cccc(C)c1NC(=O)CSc1n[nH]c(-c2ccccc2)n1,inactive: 13.2%
4,COc1cc(NC(=O)CCN2CCN(c3ccccc3)CC2)cc(OC)c1,inactive: 10.2%
5,Cc1cc(C)cc(NC(=O)C(=O)NCC(c2cccnc2)N2CCOCC2)c1 (stereo not given),inactive: -18%
6,Cc1ccccc1OCCSc1nnc(-c2cccs2)o1,inactive: -0.453%
7,CCC(C(=O)NCCC(C)C)N(C(=O)Cn1nnc(-c2ccc(C)cc2)n1)c1cccc(O)c1 (stereo not given),inactive: 0.284%
8,Cc1ccc(NC(=O)Cn2c(=O)n(CCC(C)C)c(=O)c3cccnc32)cc1C,inactive: -1.22%
9,COc1ccc(Cl)cc1NC(=O)Cn1c(=O)n(Cc2ccc(F)cc2)c(=O)c2cccnc21,inactive: -1.51%
10,CC1CN(C(=O)N2CCC(C(=O)NCc3ccccc3F)CC2)c2cc(Cl)ccc2O1 (stereo not given),inactive: 1.56%
11,COc1ccccc1N1CCN(C(=O)Cn2c(=O)nc(-c3ccccc3)c3ccccc32)CC1,inactive: 0%
12,CCOc1ccc(NC(=O)C(C)n2c(=O)cc(-c3ccccc3)c3c(C)nn(C)c32)cc1 (stereo not given),inactive: -13.4%
13,CCOC(=O)c1c(C)[nH]c(C)c1S(=O)(=O)N1CCCC(C(=O)N2CCN(c3cccc(Cl)c3)CC2)C1 (stereo not given),inactive: -2.95%
14,Cc1ccc2nc(-c3ccc(C)s3)c(Nc3ccc4c(c3)OCCO4)n2c1,inactive: -0.654%
15,COc1ccc(CCNC(=O)CN(c2ccccc2)S(=O)(=O)N(C)C)cc1,inactive: 0.165%
16,COc1ccccc1-c1nn(CCC(=O)Nc2ccccc2)c2nc(C)cc(C)c12,inactive: -0.686%
17,O=C(NCc1ccccc1Cl)c1ccc2c(c1)NC(=O)C(CS(=O)(=O)Cc1ccc(Cl)cc1)N2 (stereo not given),inactive: 4.35%
18,O=C(Nc1ccc(F)c(F)c1)C(c1ccccc1)N1Cc2ccccc2C1=O (stereo not given),inactive: -5.5%
19,CCN(CC)CCNC(=O)c1cc2c(-c3cccc(OC)c3)nn(C)c2s1,inactive: -0.0503%
20,Cc1ccc(C(=O)N2CCN(CCc3ccncc3)CC2)cc1,inactive: -0.265%
21,CCOc1ccccc1NC(=O)Cn1c(=O)n(CCCC(=O)NCc2ccc(C)cc2)c(=O)c2ccccc21,inactive: 2.09%
22,Cc1cccc2sc(N(Cc3cccnc3)C(=O)c3ccco3)nc12,inactive: -1.7%
23,COc1ccccc1OCC(=O)NCCS(=O)(=O)N1CCN(c2ccccc2OC)CC1,inactive: 1.07%
24,Cc1nn(C(C)C(=O)NCc2ccco2)c(=O)c2nn(-c3ccccc3)c(C)c12 (stereo not given),inactive: -0.0337%

row,SMILES,"activity change, negative = inhibition"
1,COc1ccc(S(=O)(=O)Nc2cccc(-c3ccc(N4CCCCC4)nn3)c2)cc1F,inactive: -1.39%
2,CN1C(=O)c2ccccc2Sc2ccc(NC(=O)N3CCN(c4ccc(F)cc4)CC3)cc21,inactive: -23.5%
3,COc1ccc(-c2nc(S(=O)(=O)c3ccccc3)c(N3CCC(C)CC3)o2)cc1,inactive: 15.6%
4,COc1ccc(NC(=O)C(NS(=O)(=O)c2cccc3nsnc23)C(C)C)cc1OC (stereo not given),inactive: -1.72%
5,CCOc1ccc(CNC(=O)c2cc3cc(S(=O)(=O)N4CCCCC4)ccc3n2C)cc1,inactive: -17.9%
6,COc1ccc(C(=O)NCCc2csc(-c3ccc(Cl)cc3)n2)c(OC)c1,inactive: -0.355%
7,Cc1ccc(Cl)cc1-n1c(SCC(=O)NCc2ccccc2)nc2n[nH]c(C)c2c1=N,inactive: -4.01%
8,CSc1ccc(CCNC(=O)CN2C(=O)COc3ccc(S(=O)(=O)N4CCCCCC4)cc32)cc1,inactive: -1.84%
9,COc1cccc(Nc2nc3c(S(=O)(=O)c4cc(C)ccc4C)nnn3c3ccsc23)c1,inactive: 1.83%
10,O=C(CN1c2ccc(Br)cc2-c2ccccc2S1(=O)=O)N1CCCCC1,inactive: -9.4%
11,CC(=O)Nc1c(C)nn(-c2ccccc2)c1N1CCC(C(=O)Nc2ccccc2C(F)(F)F)CC1,inactive: 2.65%
12,Cc1ccc(NC(=O)N2CCN(Cc3nc4ccc(C)cc4o3)CC2)cc1,inactive: 6.83%
13,Cc1cc(=O)c2cc(C(=O)Nc3ccc(F)cc3)ccc2[nH]1,inactive: -1.07%
14,CCOC(=O)N1CCN(S(=O)(=O)N2CCCC(C(=O)NCc3cc(Br)ccc3OC)C2)CC1 (stereo not given),inactive: 6.81%
15,Cc1cc(C)c(NC(=O)CSC2=Nc3ccccc3C3=NC(CC(=O)NCc4cccs4)C(=O)N23)c(C)c1 (stereo not given),inactive: -2.88%
16,O=C(Cn1c(-c2cccs2)cc2cc(F)ccc21)N1CCN(c2ccccc2)CC1,inactive: 5.91%
17,COc1ccc(C)cc1-n1nnc(S(=O)(=O)c2ccc(C)cc2)c1C,inactive: -3.21%
18,COc1ccc2c(C)c(CCC(=O)NCc3ccccc3OC)c(=O)oc2c1,inactive: -8.17%
19,Cc1cccn2c(=O)c(C(=O)NC(C)c3ccccc3)c(O)nc12 (stereo not given),inactive: -0.652%
20,CCOc1ccc(Nc2oc(/C=C/c3ccc(OC)c(OC)c3)nc2C#N)cc1,inactive: -17.5%
21,O=C(c1ccccc1Cl)N1CCC(c2nc3ccccc3s2)CC1,inactive: -9.53%
22,CCN(CC)S(=O)(=O)c1ccc(C(=O)NC2CC(=O)N(c3ccc(OC)c(OC)c3)C2)cc1 (stereo not given),inactive: -1.54%
23,Cc1ccc(N(CC(=O)NCCSc2ccccc2)S(=O)(=O)c2ccc(F)cc2)cc1,inactive: 14.6%
24,CC(=O)c1ccc(NC(=O)c2cc3sccc3n2Cc2ccc(Cl)cc2)cc1,inactive: 8.96%

row,SMILES,"activity change, negative = inhibition"
1,O=C(COc1ccc(Cl)cc1)NCC(c1ccco1)S(=O)(=O)c1ccc(F)cc1 (stereo not given),inactive: -3.84%
2,CCOCCCNC(=O)C(=O)Nc1c2c(nn1-c1ccccc1)CSC2,inactive: 0.207%
3,Cc1ccc(CNS(=O)(=O)c2ccc3[nH]c4c(c3c2)CCCCC4)cc1,inactive: 7%
4,COCCCn1c(=O)c2sccc2n2c(CCCC(=O)Nc3cccc(OC)c3)nnc12,inactive: -18.3%
5,Cc1cccc(NC(=O)C2CCCN(S(=O)(=O)c3ccc4c(c3)CCCC(=O)N4)C2)c1 (stereo not given),inactive: 7.78%
6,COc1ccc(Cl)cc1NC(=O)Cn1nc(C(F)(F)F)c2c1CCCC2,inactive: 0.649%
7,CCc1ccc(NC(=O)c2ccc(Cn3nc(N4CCN(c5ccccc5)CC4)ccc3=O)o2)cc1,inactive: -10.8%
8,O=C(c1ccc2c(c1)N(Cc1c(F)cccc1Cl)C(=O)c1ccccc1S2)N1CCCC1,inactive: 2.28%
9,Cc1ccc(Cl)cc1-n1ncc2c(Nc3ccc4c(c3)OCCO4)ncnc21,inactive: 6.69%
10,COc1cc(NC(=O)CN2C(=O)COc3ccc(S(=O)(=O)NC4CCCC4)cc32)cc(OC)c1,inactive: -4.86%
11,CC(=O)N1CCCC1c1nc2ccccc2n1Cc1ccc(F)cc1 (stereo not given),inactive: 4.06%
12,CC1CCc2c(sc3nnn(CC(=O)Nc4c(C(C)C)cccc4C(C)C)c(=O)c23)C1 (stereo not given),inactive: 1.99%
13,CCC(C)c1ccccc1OCC(=O)Nc1ccc(S(=O)(=O)Nc2cc(C)on2)cc1 (stereo not given),inactive: -3.93%
14,COc1cc(NS(=O)(=O)c2c(C(=O)N3CCCCC3)c(C)n(C)c2C)cc(OC)c1OC,inactive: 5.28%
15,COc1ccc(-c2cc3ncc(C(=O)c4cc([N+](=O)[O-])ccc4O)cn3n2)cc1,inactive: 6.01%
16,O=C(Nc1cccc2cccnc12)c1ccc(-c2cccc(Cl)c2)o1,inactive: -0.405%
17,CCCn1c2ccccc2c2cnn(CC(=O)NCCCN(CC)c3ccccc3)c(=O)c21,inactive: -8.71%
18,O=C(Nc1sc2c(c1C(=O)NCC1CCCO1)CCC2)c1cc(=O)c2cc(Cl)ccc2o1 (stereo not given),inactive: -0.173%
19,COc1cccc(NC(=O)CCCn2c(=O)c3cccn3c3cccnc32)c1,inactive: 3.26%
20,Cc1ccc(CCNC(=O)c2ccc3c(c2)N(Cc2ccccc2F)C(=O)c2ccccc2S3=O)cc1 (stereo not given),inactive: -1.19%
21,Cn1nnnc1SCCCNCc1cc(Br)ccc1OCc1ccccc1F,inactive: -15.3%
22,CCOC(=O)c1cc(-c2ccccc2)n(CC(=O)Nc2ccccc2OCC)c1C,inactive: -12.2%
23,Fc1ccc(-c2cc(-c3ccccc3)c3c(n2)-c2ccccc2OC3)cc1,inactive: -4.19%
